Here are results for 40 sequences from the supplement of paper PMC6531468.

The list shows a part of the results. These are enrichments in a pooled selection; single values are uncertain. Each score is taken over the longer molecules that contain the sequence shown.

The assay relates to IMP3 RRM1-2. Put plainly: 6-mer SELEX enrichment z-score vs GST control; IMP3 is the RNA-binding protein IGF2BP3; higher = more enriched by binding. The settings on record: construct: RRM1-2 (1-163); SELEX round: R2. The procedure: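 SELEX-seq with GST-tagged IMP3 RRM1-2 (Met1-Asn163) and an N40 RNA pool, round 2. 6-mer enrichment z-score normalised to GST SELEX. RNA written as DNA (T = U).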
Sequence of IMP3 RRM1-2 (chain, as listed by the source): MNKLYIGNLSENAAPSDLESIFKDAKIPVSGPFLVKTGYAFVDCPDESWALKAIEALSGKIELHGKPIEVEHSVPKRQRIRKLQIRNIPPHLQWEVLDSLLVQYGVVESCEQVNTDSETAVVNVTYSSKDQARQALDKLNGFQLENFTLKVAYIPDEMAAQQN
Take GGAAAT: the “6-mer SELEX enrichment z-score” value was -0.956. With CCATAC, the “6-mer SELEX enrichment z-score” value turned out to be 0.639. Under GGGGAG stands -0.19; under CGCGTA, -0.172. With CAGTCG, the “6-mer SELEX enrichment z-score” value was found to be 0.35. The result for AGAAAG reads -1.46; that for GAGGGG, -0.102. Under GCATGC stands 0.664. Under TAAGGA stands -0.433; under TACCAA, -0.459; under GATAAG, -0.717.

CTATGA: the “6-mer SELEX enrichment z-score” value was -0.435. The result for GACCCT reads -0.699.

As for AGGTTC, the “6-mer SELEX enrichment z-score” value was found to be 0.283.

AGAATC: the “6-mer SELEX enrichment z-score” value was -0.223.

For GAGAAT, the “6-mer SELEX enrichment z-score” value is -0.898.

As for GAGTAA, the “6-mer SELEX enrichment z-score” value is -0.57. The result for TCGATG reads -0.15. GTTGAG: the “6-mer SELEX enrichment z-score” value was found to be 0.034.

Consider GGATTT, for which the “6-mer SELEX enrichment z-score” value was 0.1. The result for GTGGCC reads -0.155; that for GCTTGA, -0.152; that for GGTGAC, -0.237.

GTCAAA: the “6-mer SELEX enrichment z-score” value is -0.377. Under TGGCGG stands 0.247.

On to ATCTTG, for which the “6-mer SELEX enrichment z-score” value was found to be 0.338.

Take ACAAAG: the “6-mer SELEX enrichment z-score” value was -0.399. On to GTTACT, for which the “6-mer SELEX enrichment z-score” value was 0.246.

AGTGAA: the “6-mer SELEX enrichment z-score” value is -0.844. The result for TCATGT reads 0.865; that for TTTTTT, 0.678. Under AATTGT stands -0.342; under TAAACG, -1.38; under AACACT, 1.65. Under AGGGTG stands 0.089; under TGGTAT, 0.474; under CGTCAG, 0.389. GCACCG: the “6-mer SELEX enrichment z-score” value is -0.136.

As to CAAGCA, the “6-mer SELEX enrichment z-score” value worked out at 1.73. The result for CAATTG reads -0.103.
